Some values that stand alone complete this part of the results.
Target: citrate synthase from D. pimensis (D. pimensis)
Assay: SEC + other: mass photometry; ENrich SEC 650 column, PBS; fractions of 250 µL of polydisperse assemblies analysed by mass photometry

stoichiometry N (SEC fraction with mostly large complexes): > 8 subunits
stoichiometry N (almost exclusively dimeric SEC fraction): 2
Substance: citrate synthase from D. pimensis (enzyme)

— article PMC11615384, “Frequent transitions in self-assembly across the evolution of a central metabolic enzyme” (Nature Communications, 2024)
